# Measured values published in PubChem BioAssay AID1345082 (National Center for Advancing Translational Sciences (NCATS), 2018).
# Where “and” joins values, the source holds several entries; their conditions need not be identical. Equal entries are not always repeated. Out of some 94,000 compounds screened, about 4,000 (4.3%) were called active. Inconclusive results, whose numbers are uncertain, are shown with a selection of clear calls. Calls follow the shape of the dose curve; as a rule, active = well fitted inhibition curve with a large enough effect; inconclusive = small, poorly fitted or top-dose-only effect; inactive = no such curve, though single readings can be large or run the other way. Where the call is inconclusive, the potency comes from a doubtful curve fit.
# Assay: Cytotoxic Profiling in NIH 3T3 Cell Line of Diverse Libraries Using Quantitative High-Throughput Screening; also: nearly all actives have a fitted effect of over 55% in size
# Settings: NIH 3T3 viability, CellTiter-Glo ATP luminescence, 48-72 h; activity change, negative = cytotoxicity: at 96.7 µM (top of the series) unless noted; series mostly up to 96.7 µM
# Method in brief: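 Luminescent ATP readout (CellTiter-Glo, 10 min RT) after 48 or 72 hr compound exposure of NIH 3T3 cells seeded at 400 cells/well in 1536-well format; quantitative HTS.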
# % is scaled to controls: 0 for no effect and ±100 for the full control effect; potency is read from the fitted curve at half-maximal effect; tags tell the direction and shape of the fitted curve.
SMILES,Potency,"activity change, negative = cytotoxicity",outcome
COc1ccc(F)cc1-c1cccc(C(=O)NCCNC(=O)c2ccccc2C)c1,"inconclusive: 44.7 µM [inhibitor, partial curve, poor fit]",–,–
O=C(Nc1ccc([C@H]2OCC(=O)N(Cc3ccc(F)cc3)[C@@H]2CO)cc1)C1CCOCC1,–,inactive: -15.9%,–
CCOCCNC(=O)C1CCCN1Cc1cccc(-c2ccc(C)c(Cl)c2)c1 (configuration not stated),active: 14.1 µM,–,–
COc1ccc(C2Cn3nnc(C(=O)N4CCN(C(=O)Cc5cccc(F)c5)CC4)c3CO2)cc1 (configuration not stated),–,–,inactive
CC(C)C(=O)N1CCC(Oc2ncccc2C(=O)N2CCCCC2)C1 (configuration not stated),–,–,inactive
O=C(NCC(F)(F)F)c1nc2sccn2c1-c1cccc(C(F)(F)F)c1,"inconclusive: 31.6 µM [inhibitor, partial curve]",–,–
COc1ccc(OC)c(CNC(=O)c2nnn3c2COC(c2ccc(F)cc2)C3)c1 (configuration not stated),"inconclusive: 50.1 µM [inhibitor, partial curve, poor fit]",–,–
COc1ccccc1CN1CCc2nc(C(=O)N3CCOCC3)oc2CC1,"inconclusive: 89.1 µM [inhibitor, partial curve, poor fit]",–,–
c1cc(-c2nc3ccncc3[nH]2)ccn1,"inconclusive: 112 µM [inhibitor, partial curve, poor fit] and inconclusive: 89.1 µM [inhibitor, partial curve, poor fit]",–,–
COc1ccc(-n2cccn2)c(C2CC(=O)Nc3c2c(C(C)C)nn3C)c1 (configuration not stated),"inconclusive: 79.4 µM [inhibitor, single point]",–,–
COc1ccc(-c2nc(C3CC3)nc3c2CCN(Cc2cccn2C)CC3)cc1,–,inactive: -28.2%,–
COc1ccc(F)cc1-c1ccc(CN2CCCCC2C(=O)NCC(F)F)cc1 (configuration not stated),"inconclusive: 44.7 µM [inhibitor, partial curve, poor fit]",–,–
CC1(CCCCc2ccccc2)COc2ccc(C(=O)NCc3cccnc3)cc2N1 (configuration not stated),"inconclusive: 89.1 µM [inhibitor, partial curve]",–,–
O=C(O)c1ccc(-c2nc3ccncc3[nH]2)cc1,"inconclusive: 44.7 µM [inhibitor, full curve]",–,–
CCCCc1nc2cc(C(=O)N(C)Cc3ccc4nonc4c3)ccc2o1,"inconclusive: 25.1 µM [inhibitor, full curve]",–,–
COCC1CN(C)CC12CCN(Cc1ccc(Cl)c(F)c1)CC2 (configuration not stated),"inconclusive: 50.1 µM [inhibitor, partial curve, poor fit]",–,–
COc1ccc(-c2cn(C)c(=O)n3cc(CN4CCNC(=O)C4)nc23)c(C(F)(F)F)c1,"inconclusive: 50.1 µM [inhibitor, partial curve]",–,–
COc1cccc(CN2CCNc3cc(-c4ccnc(C)c4)ncc3C2)c1,"inconclusive: 79.4 µM [inhibitor, partial curve, poor fit]",–,–
CCCc1noc(-c2cccn3c(CNC(=O)c4cc(F)ccc4Cl)nnc23)n1,–,inactive: -16.3%,–
CCOc1ccc2c(n1)CCN(C(=O)Cc1c(C)noc1C)C2,"inconclusive: 25.1 µM [inhibitor, partial curve, poor fit]",–,–
COc1ccccc1OCCNC(=O)c1ccc2c(c1)C(O)CCCCCN2C (configuration not stated),"inconclusive: 44.7 µM [inhibitor, partial curve, poor fit]",–,–

SMILES,Potency,"activity change, negative = cytotoxicity",outcome
CC(C)c1noc(-c2cn(C3CCN(C(=O)Cc4ccc(Cl)cc4)C3)nn2)n1 (configuration not stated),–,inactive: -20.2%,–
CC1CCN(C(=O)c2ccccc2OCC2CCCN(C3CCCC3)C2)CC1 (configuration not stated),"inconclusive: 39.8 µM [inhibitor, partial curve]",–,–
O=C(CN1CC2CC(C1)[C@H]1CCCC(=O)N1C2)N1CCCCC1 (some centres not stated),–,inactive: 1.68%,–
O=c1[nH]c(C2CCCN(CC3CC3)C2)nn1-c1ccccc1 (configuration not stated),"inconclusive: 112 µM [inhibitor, single point]",–,–
O=C(N[C@H]1C[C@@H]2C(=O)N[C@H]3CCN(C(=O)C4CCCC4)[C@@H]3C(=O)N2C1)c1ccc(F)c(Cl)c1,–,inactive: 2.34%,–
COc1ccc(-c2cc(C[C@H]3CNCC[C@H]3CC(=O)N3CCN(c4ccccc4)CC3)no2)cc1,active: 25.1 µM,–,–
COCc1nc(-c2ccc(OC3CCN(C(=O)Cc4c[nH]c5ccccc45)C3)cc2)no1 (configuration not stated),"inconclusive: 44.7 µM [inhibitor, partial curve, poor fit]",–,–
CC1CCCCC1NC(=O)c1cc(-c2ccccc2C(F)(F)F)nc2c1cnn2C (configuration not stated),"inconclusive: 35.5 µM [inhibitor, partial curve]",–,–
CC(C)(C)c1cnc([C@@H]2COCCN2Cc2ccc(C(=O)O)cc2)[nH]1,"inconclusive: 112 µM [inhibitor, partial curve, poor fit]",–,–
COc1ccc(-c2cc(C(=O)N3CCN(Cc4ccccc4)CC3)c3cnn(C)c3n2)cc1,"inconclusive: 44.7 µM [inhibitor, partial curve, poor fit]",–,–
COc1ccc(-c2nc3c(C)cccc3cc2CN2CC[C@@H](O)C2)cc1,"inconclusive: 10 µM [inhibitor, full curve, poor fit]",–,–
Cc1cn2nc(C(=O)N3CCC(NC(=O)C4(c5ccccc5)CC4)CC3)cc2c(=O)[nH]1,–,inactive: -0.545%,–
COc1ccccc1-n1c(=O)c(C(=O)NC2CCCC2)nc2cccnc21,–,inactive: -17.4%,–
CC(C)c1ccc(NC(=O)CC2=C3CCCCC3N(C(C)C)C2=O)cc1 (configuration not stated),"inconclusive: 50.1 µM [inhibitor, partial curve, poor fit]",–,–
Cc1noc(C)c1S(=O)(=O)N1CCOc2ccc(CN3CCOCC3)cc2C1,–,inactive: -35%,–
O=C(NCC1(COc2ccc(C(F)(F)F)cn2)C[C@@H](O)[C@@H](O)C1)c1cnccn1 (some centres not stated),–,inactive: -1.54%,–
Cc1cc(N2CCC(NCc3noc(C)n3)CC2)nc(-c2ccccc2O)n1,"inconclusive: 44.7 µM [inhibitor, partial curve, poor fit]",–,–
CN(Cc1ccc2nonc2c1)Cc1cc2n(n1)CCN(S(C)(=O)=O)C2,–,inactive: 2.37%,–
O=C1NC(=NC2CCCC2)C2(CCN(Cc3ccc(F)cc3)C2)N1c1cccnc1 (configuration not stated),active: 22.4 µM,–,–
CC(C)n1cnnc1CC1CCN(S(=O)(=O)c2ccc3c(c2)CCC3)C1 (configuration not stated),–,inactive: -22.3%,–
O=C(CCc1ccccc1)N1CCN(C(=O)c2nnn3c2COC(c2ccc(Cl)cc2)C3)CC1 (configuration not stated),"inconclusive: 50.1 µM [inhibitor, partial curve, poor fit]",–,–
